{
  "source": "the supplement of paper PMC10338343",
  "note": "± gives the standard deviation. Over roughly 5,500 sequences, “pre-steady-state target cleavage rate” has its median near 0.1; the highest 2% begin near 0.64. Only a part is listed here, and it is no random draw.",
  "data": [
    {"system": "MIWI (PIWIL1) piRISC loaded with piRNA #2 (30 nt)", "experiment": "pre-steady-state target cleavage rate (min^-1); MIWI and MILI are mouse PIWI proteins and EfPiwi is from a freshwater sponge; tags in brackets are library labels; higher = faster piRNA-guided slicing of the target", "conditions": "guide: piRNA #2 5'p-UUAGGUAACCCAGUAGAUCCAGAGGAAUUC; auxiliary factor: 500 nM mouse GTSF1", "method_in_brief": "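In HEPES–potassium acetate buffer at 33 °C, […] transcribed, DNA-blocked target RNA library was mixed with 1 nM active affinity-purified piRISC carrying one synthetic guide, with or without 500 nM GTSF1 partner protein, for 0–8 or 0–960 min. Uncleaved targets were sequenced and normalised to depth and to weakly complementary targets; three trials were pooled and k3 was capped at 0.0001 min^-1. The pre-steady-state cleavage rate followed from a burst-and-steady-state fit.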", "values": [
      {"sequence": "CUUAAGGUCAGGUUCUACUGGGUUACCUAA", "pre-steady-state target cleavage rate": "0.0162 ± 0.0043"},
      {"sequence": "CUUAUCGUGUGGAUCUACUGGGUUACCUAA", "pre-steady-state target cleavage rate": "0.318 ± 0.042"},
      {"sequence": "CUUAAGGUGUGGAUCUAGUGGGUUACCUAA", "pre-steady-state target cleavage rate": "0.0159 ± 0.005"},
      {"sequence": "CAAUUCCACUGGAUCUACUGCGUUACCUAA", "pre-steady-state target cleavage rate": "0.468 ± 0.067"},
      {"sequence": "CUUAAGCUCUGGAUCUACUGCGUUACCUUA", "pre-steady-state target cleavage rate": "0.167 ± 0.029"},
      {"sequence": "CUUUUCCUCUGGAUCUACUGGGUUACCUAG [g2:g27:cont:t1G]", "pre-steady-state target cleavage rate": "0.4 ± 0.064"},
      {"sequence": "CUUAAGCUCUGGAUCUACUGGGUAACCAAA", "pre-steady-state target cleavage rate": "0.0234 ± 0.0094"},
      {"sequence": "CAAUUCCUCAGGAUCUACUGGCUUACCUAA", "pre-steady-state target cleavage rate": "0.104 ± 0.017"},
      {"sequence": "CAAUUGCUCUGGAUCUACUGGGUUUCCUAA", "pre-steady-state target cleavage rate": "0.227 ± 0.04"},
      {"sequence": "CUUAAGGAGACCAUCUACUGGGUUACCUAAA", "pre-steady-state target cleavage rate": "0.00402 ± 0.0032"},
      {"sequence": "CUAUUCCUCUGGAACUACUGGGUUACCAAA", "pre-steady-state target cleavage rate": "0.212 ± 0.044"},
      {"sequence": "CUUUUCCUCUGCAUCUACUGGGUUACCUAA", "pre-steady-state target cleavage rate": "0.404 ± 0.036"},
      {"sequence": "CUUAAGGUCUGGAUCUACAGGGUAACCUAA", "pre-steady-state target cleavage rate": "0.0779 ± 0.015"},
      {"sequence": "CUAUUCCUCUGGAUGUACUGGCUUACCUAA", "pre-steady-state target cleavage rate": "0.119 ± 0.025"},
      {"sequence": "CUUAAGGAGAGGAUCUACUGGGUUUACCUAA", "pre-steady-state target cleavage rate": "0.00683 ± 0.0028"},
      {"sequence": "GAAUUCCUCUGGAUCAACUGCGUUACCUAA", "pre-steady-state target cleavage rate": "0.439 ± 0.053"},
      {"sequence": "CUAUACCUCUGGAUCUACUGCGUUACCUAA", "pre-steady-state target cleavage rate": "0.732 ± 0.066"},
      {"sequence": "CUUAAGGUCUGGAUCUACUGGGUUUCCAAA", "pre-steady-state target cleavage rate": "0.015 ± 0.0057"},
      {"sequence": "CAAUUCCUCUGGAUCUACUGGGUUACUAA", "pre-steady-state target cleavage rate": "0.31 ± 0.088"},
      {"sequence": "CUAUUGCUCUCGAUCUACUGGGUUACCUAA", "pre-steady-state target cleavage rate": "0.386 ± 0.038"},
      {"sequence": "CUUUUCGUCUGGUUCUACUGGGUUACCUAA", "pre-steady-state target cleavage rate": "0.406 ± 0.047"},
      {"sequence": "CUUAACCUCUGGUUGUACUGGGUUACCUAA", "pre-steady-state target cleavage rate": "0.493 ± 0.034"},
      {"sequence": "CAAUACCUCUGGAUCUACUGGCUUACCUAA", "pre-steady-state target cleavage rate": "0.0941 ± 0.017"},
      {"sequence": "CUUAACCACUGGAUCUACUGGCUUACCUAA", "pre-steady-state target cleavage rate": "0.0464 ± 0.011"},
      {"sequence": "CUUAACCUCUGGAUCUGCUGGGUUACCUAA", "pre-steady-state target cleavage rate": "0.159 ± 0.018"},
      {"sequence": "CUUUUCCUCUGGAUGUUCUGGGUUACCUAA", "pre-steady-state target cleavage rate": "0.305 ± 0.031"},
      {"sequence": "CUAUUCCUCUGGAUCUACUGGCUUACCAAA", "pre-steady-state target cleavage rate": "0.0709 ± 0.022"},
      {"sequence": "CUUUUCCUCUCGGAUCUACUGGGUUACCUAA", "pre-steady-state target cleavage rate": "0.377 ± 0.046"},
      {"sequence": "CUUAACCACUGGAUCUACUGGGUAACCUAA", "pre-steady-state target cleavage rate": "0.107 ± 0.015"},
      {"sequence": "CUUUUCCUGUCGAUCUACUGGGUUACCUAA", "pre-steady-state target cleavage rate": "0.444 ± 0.033"},
      {"sequence": "CAAUUCCUCUGGAUCUACUGCGUAACCUAA", "pre-steady-state target cleavage rate": "0.179 ± 0.05"},
      {"sequence": "CUUAAGGAGUGGAUCGACUGGGUUACCUAA", "pre-steady-state target cleavage rate": "0.0173 ± 0.0051"},
      {"sequence": "CUUAAGGACACCAUCUACUGGGUUACCUAA", "pre-steady-state target cleavage rate": "0.00335 ± 0.0033"},
      {"sequence": "CUUAAGCUCAGGAUCUACUGGGUUUCCUAA", "pre-steady-state target cleavage rate": "0.0918 ± 0.015"},
      {"sequence": "CUUAAGGAGAGGAUCUACUGGAUUACCUAA", "pre-steady-state target cleavage rate": "0.0161 ± 0.0083"},
      {"sequence": "CUUAAGCUCUGGAUCUACUGGGUAAGCUAA", "pre-steady-state target cleavage rate": "0.0314 ± 0.0056"},
      {"sequence": "CUAUUCCUCUGGAUCUACUCGGUUACCAAA", "pre-steady-state target cleavage rate": "0.0838 ± 0.028"},
      {"sequence": "CUUAAGCUCUCGAUCUACUGCGUUACCUAA", "pre-steady-state target cleavage rate": "0.508 ± 0.049"},
      {"sequence": "CUUAACCUCUGGACUACUGGGUUACCUAA", "pre-steady-state target cleavage rate": "0.12 ± 0.013"}
    ]}
  ]
}
